Whole data set: some 33,000 sequences, median “E-score (-0.5 to 0.5)” near -0.053, cut for the highest 2% near 0.37. The list shows a part of the results.
Target: Hap1 (UniProt P0CE41)
Assay: PBM E-score (8-mer binding enrichment) (E-score (-0.5 to 0.5)); higher = stronger / more preferred TF binding; most listed sequences are background and not binding sites
Conditions: protein concentration: 200 nM; construct: GST-DNA-binding domain
Procedure: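 Universal 'all 10-mer' protein binding microarrays (Agilent AMADID 015681) probed with GST-tagged S. cerevisiae TFs (full-length or DBD) made by in vitro transcription/translation (PURExpress), about 100-200 nM. Bound TF was detected with fluorescent anti-GST. Each ungapped 8-mer (which stands for itself and its reverse complement) is scored by the PBM enrichment score (E-score), a modified Wilcoxon-Mann-Whitney statistic from -0.5 to +0.5, computed with the Universal PBM Analysis Suite. Scale: above 0.35 generally sequence-specific binding.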

Chain of UniProt P0CE41 (P0CE41 whole entry): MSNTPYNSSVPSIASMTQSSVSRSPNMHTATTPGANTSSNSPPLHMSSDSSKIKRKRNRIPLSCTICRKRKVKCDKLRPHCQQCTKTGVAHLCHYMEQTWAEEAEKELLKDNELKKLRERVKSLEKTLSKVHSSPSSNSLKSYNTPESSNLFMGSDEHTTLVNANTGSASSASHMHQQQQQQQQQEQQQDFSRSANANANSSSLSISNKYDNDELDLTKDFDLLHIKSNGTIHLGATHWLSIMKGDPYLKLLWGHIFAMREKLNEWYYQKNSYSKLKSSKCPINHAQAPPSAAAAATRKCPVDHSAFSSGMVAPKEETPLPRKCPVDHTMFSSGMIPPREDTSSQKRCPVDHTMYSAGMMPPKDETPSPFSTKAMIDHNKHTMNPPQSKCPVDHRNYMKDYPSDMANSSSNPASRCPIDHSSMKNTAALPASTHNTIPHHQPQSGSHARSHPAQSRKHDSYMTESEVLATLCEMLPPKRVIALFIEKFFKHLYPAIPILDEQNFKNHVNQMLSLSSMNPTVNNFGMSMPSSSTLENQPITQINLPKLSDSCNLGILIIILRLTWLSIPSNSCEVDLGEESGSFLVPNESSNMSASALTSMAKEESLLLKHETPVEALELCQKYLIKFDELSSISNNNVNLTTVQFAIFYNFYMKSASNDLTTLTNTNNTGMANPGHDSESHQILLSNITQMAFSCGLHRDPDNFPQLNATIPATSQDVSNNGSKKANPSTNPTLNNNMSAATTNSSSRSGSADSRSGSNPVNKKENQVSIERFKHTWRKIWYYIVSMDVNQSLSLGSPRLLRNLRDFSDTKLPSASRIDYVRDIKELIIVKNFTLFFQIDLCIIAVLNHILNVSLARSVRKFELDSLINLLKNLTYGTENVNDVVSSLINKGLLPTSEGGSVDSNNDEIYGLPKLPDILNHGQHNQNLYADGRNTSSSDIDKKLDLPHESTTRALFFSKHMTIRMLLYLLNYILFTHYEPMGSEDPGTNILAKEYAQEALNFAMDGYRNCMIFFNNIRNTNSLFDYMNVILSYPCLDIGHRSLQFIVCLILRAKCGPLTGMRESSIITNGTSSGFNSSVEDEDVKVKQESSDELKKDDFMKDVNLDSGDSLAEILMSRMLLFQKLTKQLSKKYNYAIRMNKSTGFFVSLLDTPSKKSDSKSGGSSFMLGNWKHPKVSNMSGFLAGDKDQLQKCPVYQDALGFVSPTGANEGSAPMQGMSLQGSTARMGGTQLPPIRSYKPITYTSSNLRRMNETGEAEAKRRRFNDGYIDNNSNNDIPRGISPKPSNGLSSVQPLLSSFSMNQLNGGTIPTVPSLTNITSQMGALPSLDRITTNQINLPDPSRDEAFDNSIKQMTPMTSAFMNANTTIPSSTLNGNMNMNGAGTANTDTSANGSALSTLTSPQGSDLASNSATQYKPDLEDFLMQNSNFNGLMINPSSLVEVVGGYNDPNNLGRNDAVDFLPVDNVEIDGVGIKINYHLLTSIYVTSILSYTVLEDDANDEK

Sequence	PBM E-score
CGAGAACA	0.164
GGAAGCCA	-0.0815
CCGTGGTC	0.0958
CCGCACCA	0.155
CCGAGCAA	0.344
CAGATAGA	-0.328
CCGGGAGA	0.29
CCCCAGTA	0.0524
CAATTTAC	-0.0319
GTCTTAAC	-0.117
CCAAGAGC	-0.212
ATAGGCTC	-0.0591
CCGAAACG	0.377
CGTCTTCA	-0.0155
ACGGGTGA	0.186
GCCCACGC	-0.0621
CATAATTC	0.085
ACGAGTCA	-0.321
AAATGTAC	0.00474
CGAAGAAA	0.138
TAAACTAA	-0.105
AGTGATCC	-0.0847
GATCCACA	-0.119
TGCCGGAA	0.365
AAATTCCG	0.376

Sequence	PBM E-score
GCTGTTTA	0.00593
GACGACTA	-0.237
ACACTATC	-0.158
TCACACCA	-0.194
CAGAATGC	-0.13
CCTCTCCA	-0.374
AGCCGGTC	0.0184
CCAGAGAA	-0.216
GCAACTGC	-0.0498
ACTTGGGG	-0.126
AATGCCCA	-0.257
ATCTCGGC	0.379
GCCCATTA	-0.17
CAAAAAAC	-0.168
GACAAACC	0.00912
ACAATAAG	-0.0552
CGTTCCAG	-0.157
TACAGAGA	-0.238
ACGCCCCA	0.12
CTTCTTGC	-0.108
GGGAAGCA	0.0388
CGCCAGCC	0.124
ACACTGGC	-0.167
CGGCGGAC	0.38
AATGTACG	-0.115

Sequence	PBM E-score
AAGACAAT	0.0491
CCTTCTAC	-0.124
AGTATAGA	0.0547
ACAGTTCC	0.214
GTGCTTCA	-0.177
CGCGGCCG	0.27
ATTCGGAG	0.299
CCTTGTAG	-0.258
CATAATGA	-0.116
GGGCCCGA	0.317
GAAGTCAC	-0.0647
CTCTCAAG	-0.109
ATTGTGCA	-0.151
ATCGACTG	0.0105
TATTTACA	-0.145
CTCCCCCC	-0.0554
AGCTCTTC	0.0747
CAGCAACA	-0.13
ATCAATCG	-0.0657
AGGCACCC	-0.17
CCGGGCAC	0.355
CGATGGTC	-0.0737
CGTCAACA	-0.129
AGCTTAGA	-0.00759
AGGTGATA	-0.163

Sequence	PBM E-score
CAAGAGTG	-0.163
TACGAAGA	-0.183
AGCTTACT	-0.208
AAGGCAGC	-0.105
ACATATTG	-0.253
CACCCGGG	0.312
CCAGAAAG	-0.06
CGGGAGCC	0.00882
CCTGTCCG	0.193
CCTGCTTC	-0.0515
CATATGCA	-0.19
GGAAGGCC	0.103
GTGCAAAC	-0.104
ACCCAAAG	-0.225
GTGTAGCA	-0.275
ATGGTCTG	-0.23
CATTCGAA	-0.131
ATTCGTTG	0.059
GATGGGAC	0.142
GATGTAAC	0.0571
TCACTCAA	-0.25
AAACGGGC	0.123
GCTTACCC	-0.0374
ATATTTCG	0.235
AAGTATGC	-0.221

Sequence	PBM E-score
ATGCCGTC	0.128
GCTTAATA	-0.00293
AACACTCC	0.0969
AAAGCTCC	0.0556
ACCCGCTG	0.126
CCCCGGCG	0.309
AACGGGTG	0.29
CTCCGACC	0.359
CAACTCCG	0.398
AGCTAAGC	-0.0745
ATCCGCAA	0.203
CTCTTGCC	-0.0922
AACGTAGA	-0.0629
TCCGACAA	0.35
CCTGCCAC	-0.207
TCAAAACA	-0.149
CTTTTCGC	0.234
AATTTGTC	-0.0649
ATGCTCTA	-0.152
TATAAGAA	0.0514
CGGGTGAG	0.201
GAATGAAA	-0.0251
CTTATAAG	0.0651
ACTAGATG	-0.293
CGGTGTCA	0.0418

Sequence	PBM E-score
AGCGCAAG	-0.26
CTCCGTCA	0.175
AGTGGGTC	-0.0315
AGGTTGCC	-0.0212
AATCTGCT	-0.00039
AGGCACCT	-0.00315
CCTGGCCC	0.041
CTCAATCA	-0.0389
ACGTAACG	0.0629
CTAAGTAA	-0.121
AGCGTAAC	-0.0061
GACGAGTC	-0.198
CCGTTACG	0.341
AAAGTTGG	-0.224
TAATGATA	0.0702
GGTGCCAC	-0.121
AAAATGAT	0.0731
CTTTCCCA	-0.0926
ACGCTCTA	-0.14
CGCTGCGA	-0.0742
CACATAAG	-0.0891
GCAAAGGC	-0.165
CACCGGGA	0.261
AGTATACT	-0.245
ATTAGAAA	-0.0503

Sequence	PBM E-score
ACGCCGAT	0.29
AGCCAACT	-0.262
GAGCGTAA	0.0168
GGAAGACC	0.0832
AACTGATT	-0.2
AGCGTGCG	0.087
CCATATAA	-0.203
AATACGAA	0.00441
GTAGAAGA	-0.122
CATTTAGC	-0.0732
CCGCCCTA	-0.00915
GAAGAGAC	0.107
AACAGCTA	-0.0549
CACAACCC	-0.138
GCCAGGAC	-0.134
TAGGGACA	0.0204
GGAAGAAA	0.0328
AAGAAGGG	-0.295
CCCTTTGA	-0.179
ATATAACC	0.144
GCCGCACA	-0.0419
AAACCTAG	-0.165

Source: the supplement of paper PMC3334620
